# Assay results reported in PMC4336329 (PLoS ONE, 2015).
# In all, about 310,000 compounds went through this assay and about 2,200 (0.71%) showed an effect of 50% or more. The effect is printed as a negative number. Some of the results follow.
# Molecular target: human ether-à-go-go-related gene (hERG) potassium channel (human, UniProt Q12809)
# Assay: primary screen, population patch clamp on CHO cells stably expressing hERG
# Chain of human ether-à-go-go-related gene (hERG) potassium channel (Q12809 whole entry, looked up): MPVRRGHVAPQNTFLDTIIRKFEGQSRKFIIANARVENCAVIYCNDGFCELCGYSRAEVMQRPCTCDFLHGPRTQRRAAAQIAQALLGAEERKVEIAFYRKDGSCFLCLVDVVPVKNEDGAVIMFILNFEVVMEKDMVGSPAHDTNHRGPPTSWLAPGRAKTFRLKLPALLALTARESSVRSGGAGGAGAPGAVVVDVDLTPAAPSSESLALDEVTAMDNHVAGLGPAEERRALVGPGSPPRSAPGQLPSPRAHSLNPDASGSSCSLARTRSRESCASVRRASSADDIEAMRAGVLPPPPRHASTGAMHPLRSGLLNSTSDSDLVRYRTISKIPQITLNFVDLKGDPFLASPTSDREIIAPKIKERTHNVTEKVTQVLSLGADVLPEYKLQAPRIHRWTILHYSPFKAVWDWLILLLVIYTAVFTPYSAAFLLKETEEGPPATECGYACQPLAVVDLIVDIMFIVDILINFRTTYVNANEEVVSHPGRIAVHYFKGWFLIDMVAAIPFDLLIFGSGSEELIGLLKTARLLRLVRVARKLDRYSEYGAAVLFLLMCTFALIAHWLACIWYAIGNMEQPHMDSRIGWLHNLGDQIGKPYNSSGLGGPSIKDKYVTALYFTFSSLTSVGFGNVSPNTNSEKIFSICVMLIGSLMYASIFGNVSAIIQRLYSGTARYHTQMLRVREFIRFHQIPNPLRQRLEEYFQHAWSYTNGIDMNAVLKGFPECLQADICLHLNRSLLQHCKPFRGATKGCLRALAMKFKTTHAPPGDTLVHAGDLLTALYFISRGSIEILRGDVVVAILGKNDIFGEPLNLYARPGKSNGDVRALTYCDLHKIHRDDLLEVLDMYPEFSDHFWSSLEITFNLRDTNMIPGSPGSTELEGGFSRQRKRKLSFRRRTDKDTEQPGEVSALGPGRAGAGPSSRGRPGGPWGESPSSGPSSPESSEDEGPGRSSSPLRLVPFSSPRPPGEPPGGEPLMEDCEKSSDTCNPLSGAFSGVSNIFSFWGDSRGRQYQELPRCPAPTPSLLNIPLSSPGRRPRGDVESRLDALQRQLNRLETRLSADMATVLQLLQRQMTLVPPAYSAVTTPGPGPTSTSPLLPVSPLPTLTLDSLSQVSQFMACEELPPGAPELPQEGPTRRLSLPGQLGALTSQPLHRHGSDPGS
row,SMILES,"hERG current change (%, negative = inhibition) at 1uM [%]"
1,Cn1c(=O)c(Sc2ccc(Cl)cc2)c(O)c2ccccc21,15.7
2,O=C(CCc1nnc(C2CCCCC2)o1)N1CCN(C2CCCCC2)CC1,4.5
3,COc1cccc(OCc2cc(C(=O)NC(C)c3cnn(C)c3C)no2)c1 (stereo not drawn),3.87
4,COc1ccc(N2CCN(C(=O)[C@H](Cc3c[nH]c4ccccc34)NC(C)=O)CC2)cc1,4.99
5,CCOc1ccc(CCNC(=O)c2sc3nc4n(c(=O)c3c2C)CCC4)cc1,10.8
6,O=C1C(Cc2ccccc2)S/C(=N/N=C/c2ccco2)N1c1ccccc1 (stereo not drawn),13.6
7,CCOc1ccc2nc(SCC(=O)Nc3ncccn3)[nH]c2c1,12.3
8,O=C(Nc1c(C(=O)O)[nH]c2ccccc12)NC1CCCCC1,5.48
9,O=C(CCN1C(=O)c2ccccc2C1=O)Nc1ccncc1,2.48
10,Cc1nn(-c2nc3ccccc3s2)c(N)c1-c1ccc(Cl)cc1,21.2
11,CCCN(C(=O)CSc1nnnn1C)C1CCS(=O)(=O)C1 (stereo not drawn),11.7
12,Cc1cc(NC(=O)CN(C)S(=O)(=O)c2cccc(Cl)c2)no1,-5.13
13,Cc1ccsc1/C=N/NC(=O)c1nnn(-c2nonc2N)c1CN(C)c1ccccc1,20.8
14,Cc1nn(Cc2c(Cl)cccc2Cl)c(C)c1NC(=O)c1sc2ccccc2c1Cl,8.64
15,C/C(=N\NC(=O)c1ccc(N/N=C(\C)c2ccncc2)cc1)c1ccncc1.O=S(=O)(O)O,4.05
16,Cc1c(CCOC(=O)CC23CC4CC(CC(C)(C4)C2)C3)sc[n+]1Cc1ccc([N+](=O)[O-])cc1.[Br-],-18.7
17,COC(=O)Cn1nnc2c(cnn2-c2ccccc2)c1=O,7.23
18,CCC(=O)Nc1cc(C)c(NC(=O)c2ccco2)cn1,15.8
19,Cc1ccc(N2C(=O)[C@@H]3C(c4ccc(F)cc4)=NO[C@@H]3C2=O)cc1,9.2
20,COC(=O)c1nc2n(n1)C(c1ccc(OC)c(OC)c1)C(C(=O)OC1CCCCC1)=C(C)N2 (stereo not drawn),1.25
21,CSc1nncn1/N=C/c1ccc([N+](=O)[O-])cc1,3.82
22,Cc1ccc(CSCC(=O)NCc2cccs2)cc1,7.51
23,O=C(Nc1ccc2c(c1)OCCO2)c1cnc2n(c1=O)CCS2,4.26
24,Cc1cc(C(F)F)n2nc(C(=O)Nc3ccc(S(=O)(=O)NC45CC6CC(CC(C6)C4)C5)cc3)nc2n1,-7.19
